From a collection of fitness landscapes (doi:10.1038/s41467-024-54723-y)
Whole data set: some 18,000 sequences, median “TetR repression strength (sort-seq, GFP reporter)” near 0.23, cut for the highest 2% near 0.68. Some of the results follow.

Molecular target: TetR (class B, Tn10) (UniProt P04483)
Assay: TetR repression strength (sort-seq, GFP reporter) (relative to tetO2 = 1); higher = stronger repression
Details: E. coli
Summary of the method: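 Three independent transformations of E. coli SIG10-MAX were made with a low-copy plasmid library randomizing eight operator positions between a constitutive promoter and sfGFP, with constitutive TetR. Following 5 h at 37 °C in LB plus 50 µg/mL chloramphenicol, 10^6 cells went through FACS into 13 fluorescence bins, and each bin was sequenced by Illumina. Repression strength was defined as the top bin index plus one minus the read-weighted mean bin, divided by the unaltered operator's value. Averages included only members reaching ≥30 reads in all replicates with a CV ≤0.5.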

Sequence of UniProt P04483 (P04483 whole entry): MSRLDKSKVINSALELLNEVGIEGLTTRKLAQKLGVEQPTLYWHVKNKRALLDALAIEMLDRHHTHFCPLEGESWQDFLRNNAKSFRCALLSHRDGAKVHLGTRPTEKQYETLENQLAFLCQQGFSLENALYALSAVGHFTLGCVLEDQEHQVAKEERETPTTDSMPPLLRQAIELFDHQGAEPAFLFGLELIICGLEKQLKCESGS

Sequence	TetR repression strength
TCCCCCACAGTCAACGAGA	0.284
TCCCATCGAGTACCTGAGA	0.255
TCCCCGTGAGTAGTCGAGA	0.229
TCCCACACAGTAGGTGAGA	0.028
TCCCCGCGAGTATGAGAGA	0.125
TCCCGGCCAGTGGGTGAGA	0.267
TCCCAATCAGTGAGGGAGA	0.352
TCCCTTAGAGTGTGCGAGA	0.207
TCCCTCTCAGTGCCGGAGA	0.612
TCCCTTGGAGTTCCGGAGA	0.481
TCCCCAAAAGTAATTGAGA	0.337
TCCCCCTGAGTCGTTGAGA	0.22
TCCCCGTGAGTACGTGAGA	0.226
TCCCGCAAAGTTAGAGAGA	0.367
TCCCGGAAAGTCTTTGAGA	0.373
TCCCTCACAGTTGCTGAGA	0.215
TCCCTAATAGTTGAGGAGA	0.442
TCCCTGTGAGTTGGAGAGA	0.142
TCCCACAAAGTGACAGAGA	0.273

Sequence	TetR repression strength
TCCCTATTAGTGACAGAGA	0.625
TCCCTGTAAGTTGAGGAGA	0.267
TCCCCGTAAGTACCCGAGA	0.351
TCCCAGGCAGTTGATGAGA	0.281
TCCCAAACAGTCGGGGAGA	0.274
TCCCAATCAGTAGGTGAGA	0.25
TCCCTTCGAGTCTTAGAGA	0.531
TCCCGGTAAGTGGTAGAGA	0.194
TCCCACTGAGTCATCGAGA	0.357
TCCCCGGGAGTGGTAGAGA	0.257
TCCCGCCCAGTGTACGAGA	0.337
TCCCGCGAAGTGGGAGAGA	0.0441
TCCCTGTAAGTTGATGAGA	0.236
TCCCGTGTAGTAGACGAGA	0.175
TCCCGGAGAGTGTATGAGA	0.188
TCCCACTAAGTTTTGGAGA	0
TCCCGAACAGTGCTGGAGA	0.328
TCCCTTATAGTGGGCGAGA	0.178
TCCCGGTCAGTGATAGAGA	0.665

Sequence	TetR repression strength
TCCCCGAGAGTTCTGGAGA	0.475
TCCCGCCCAGTGGTGGAGA	0.0548
TCCCTTCCAGTCTCTGAGA	0.325
TCCCTGTTAGTTTCGGAGA	0.178
TCCCTCTCAGTGGGCGAGA	0.474
TCCCTAACAGTCGATGAGA	0.444
TCCCGGGCAGTAATAGAGA	0.192
TCCCTAGAAGTGGGAGAGA	0.231
TCCCGAGCAGTCTGAGAGA	0.149
TCCCTCTAAGTGGGGGAGA	0.254
TCCCTGGCAGTAGGTGAGA	0.102
TCCCGGTCAGTTGAGGAGA	0.219
TCCCTACTAGTGGGTGAGA	0.165
TCCCAGACAGTGTCGGAGA	0.377
TCCCCGGGAGTCCCGGAGA	0.104
TCCCTTAAAGTCGGAGAGA	0.0415
TCCCGGGCAGTCCCAGAGA	0.218
TCCCCGAAAGTGAATGAGA	0.146
